Source: the RNAGym collection of RNA variant scans (doi:10.7554/elife.90254)
Read counts are not given, so values of variants with three or more changes are uncertain.

B1: LINE1-mini (parent)
chain: GGCAGAGCUCAACACAGCGUGGCAAAGUGGCUGUGGCUAGACUGCC

Variants of: B1
Assay: self-cleavage, relative activity (ratio to wild type); higher = more cleavage; in vitro, sequencing; the parent is a self-cleaving ribozyme

Variant	self-cleavage
GGCAGAGCUCAAUACAGCAUGGCAAAGUGGUUGUGGCUAGACUGCC [C13U G19A C31U]	0.02
GGCCGAGCUCAGCACAGCGUGGCAAAGUGGCUGGGGCUAGACUGCC [A4C A12G U34G]	0
GGCAGAGCUCAACACAGCGUGGCGAAGUUACUGUGGCUACACUGGC [A24G G29U G30A G40C C45G]	0.05
AGUAGAGCUCAACACAGCGUGGCAAAGUGGGAGUGGCUAGACUGCC [G1A C3U C31G U32A]	0.13
GGCAGGGCUCAACACAGCGUGGCAAAGUAGCUGUGGGUAGACUGCC [A6G G29A C37G]	0.01
GUCAGAGCUCAACACAGCGUGGCAAAGUAGAUGUUGAUAGACUGCC [G2U G29A C31A G35U C37A]	0.01
GGUAGAGCUCAACAGAGCGUGGCAAAGUGGCUGUGGCGAGACUGCU [C3U C15G U38G C46U]	0.02
GGCAGAGCUCAACGCAGCGUGGCAAAGUGGCUGUGGCUAGAGAGCC [A14G C42G U43A]	0
GGCAGAGCUCAACAUAGCGUGGCUAAGUGGCUGUGGCUCGACUGCC [C15U A24U A39C]	0.01
GGCAGAGCUCAACACAGCGUGGCAAAGCGGCUGUGGCUCGAAUGCC [U28C A39C C42A]	0.02
AGAACAGCUCAACACAGCGUGUCAAAGUGGCUGUGGCUAGACUCCC [G1A C3A G5C G22U G44C]	0.74
GUCAGAGCUCAGCACAGCGUGGCAAAGUGGCUGUGGCUAGACAGCC [G2U A12G U43A]	0.07
GGCAGAUCUCAACACAGUGAGGCUAAGUGGCUGUGGCUAGACUGCC [G7U C18U U20A A24U]	0.08
GGCAGAGCUCACCACAGCGUCGCAUAGUGGAUCUGGCUUGACUACC [A12C G21C A25U C31A G33C A39U G44A]	0.04
GGCACACCUCAACACAGCGUGGCUAAGUGGCUGUGGCUAGACUGCA [G5C G7C A24U C46A]	0.02
GGAAGAGCUCAACAAAGCGUGGCAAAGUGUCUGUGGCUAGAUAACC [C3A C15A G30U C42U U43A G44A]	0.08
GGCAGAGCUCAACACAACGUGGCAAAGUGGCCGUGGGUAGACCGCC [G17A U32C C37G U43C]	0.2
GGCUGAGCUCAACACAGCGUGGCAAAGUGGUUGUGGCCAGACUGCC [A4U C31U U38C]	0.03
GGCAGGGCUCAACACAGCGUGGCAAAGUGCCUGUGUCUAGAAUACC [A6G G30C G36U C42A G44A]	0.02

Variant	self-cleavage
GGCUGAGCACAUCACAGCGUGGCAAAGUGGCUGUGGCUAGACUGCG [A4U U9A A12U C46G]	0.06
GGCAGAUCUCCACCCAGCGUGGCAAAGUGGCUGUCGCUAGACGGCC [G7U A11C A14C G35C U43G]	0
GACAGAGCUCAACACAGCGUGGCAAAGCGGAGGUGUCUAGACUCCC [G2A U28C C31A U32G G36U G44C]	0.13
GGCAGAGCUGAGCACAGCGUGUCAAAGUGGCUGUGGCUAGACUGCC [C10G A12G G22U]	0.02
GGCAGAGCUCAACACAGCGUUGCAAAGUGGCUGUGACUAGACUCCC [G21U G36A G44C]	0.2
GGCAGAGCUCAAAACAGGCUGGCAAAGUGGCUGUGGCUUGACUGCC [C13A C18G G19C A39U]	0.01
GGCAGAGCUCAACACAGCGUCGCAAAGUGGCUGUGGCGAGAGAGCC [G21C U38G C42G U43A]	0.02
GGCAGAGCUCAACACAGCGUGGCAUAGUGGCUGUGGCAAGGCUGCG [A25U U38A A41G C46G]	0.06
AGCAGAGCUCAACACAGCGCGGCAAAGUGGCUGUGGCAAGACUGCC [G1A U20C U38A]	0.35
GAUAGAGCUCAACACAGCGUGGCAAAGUGGCUAUGGCUAGACUGCC [G2A C3U G33A]	0.24
GGCAGAGGUCAAGUCAGCGUGGCAAAGGGGCUGUAGCUAGACUGCC [C8G C13G A14U U28G G35A]	0.14
GGCAGAGCUCUACACAGCGUGACAAAGUGGCUCUUGCUAGAUUGCC [A11U G22A G33C G35U C42U]	0.01
GGCAGAGUUCAACACACCGUGGUAAAGUGGCUGUGGCUAGACUGCC [C8U G17C C23U]	0.17
GGCAGAGCUCAACACCGCGUGGCAUAGUUCCUUUGGCUAGACUGCC [A16C A25U G29U G30C G33U]	0.04
GGCAGAACCCCACACAGCGUGGCCAAGUGGCUAUGGCUAGACUGCC [G7A U9C A11C A24C G33A]	0.02
GGCGGUGCUCAACACAGCGUGGCAAAGUGUCUGUGGCUAGACUGCC [A4G A6U G30U]	0.45
GGCAUAGCUCAACACAGCGUGGGAACGUGGCUGUGUCUAGAAUGCC [G5U C23G A26C G36U C42A]	0.03
GGCAGAGCUAAACACAACGUGGCAGAGUGGCUGUGGCUAGUCUACC [C10A G17A A25G A41U G44A]	0.01
GGGAGAGCUCAACACAGCAUGGCUAAGUGGCUGUGGCUAGACUGCC [C3G G19A A24U]	0.42

Variant	self-cleavage
GGAAGAGCUCCAAACAGCGUGGCAAAGUGGCUGUGGCUAGACUGCC [C3A A11C C13A]	0.05
GGCCGAGCUCAACACAGCGUGGCAAAGAGGCUGUGCCUAGACUGGC [A4C U28A G36C C45G]	0.11
GGCAGAGCUCAACACAGCUUGGCAAUGUGGCUGUGGCUAGACUGUC [G19U A26U C45U]	1.35
GGCGGAGUUCAACACUGCGUGGCAAAGUGGCUGUGGCUCGACUACC [A4G C8U A16U A39C G44A]	0.08
GCCAGAGCUAAACACAGCGUGGCAAAGUGGCUGUGCCUAGACUGCG [G2C C10A G36C C46G]	0.01
CGCAGAGCUCAACACAGCGUGGCAAAGUGGCUGAGGCAAGACUGCC [G1C U34A U38A]	0.01
AGCAGGGCUCCACACAGCGUGGCAAAGUGGCUGUGGCUAGACUGCC [G1A A6G A11C]	0.02
GGCAAUGCUCAACACAGCGAGGCAAAGUGGCUGUGGCUAGACUGCC [G5A A6U U20A]	0.13
GGCAGAGCACCACCCAGCGUGGCAAAGUGGCUGUGGCUAGACUGCC [U9A A11C A14C]	0.04
UGCAGAGGUCAACACAGCGUGGCAAAGUCGCUGUGUCUAGACUGCC [G1U C8G G29C G36U]	0.01
GGCAGAGCUCUAGAGAGCGUGGCAAAGUGGCCGUGGCUAGACUGCC [A11U C13G C15G U32C]	0.01
GGCAGAGCUCAACACACCGCGGCAAAGUGUCUGUAGCUAGACUGUU [G17C U20C G30U G35A C45U C46U]	0.02
UGCAGAGCUCAACACAGCCUGGCACAGUUGCUGUGGCUAGACUGUC [G1U G19C A25C G29U C45U]	0.09
GCCAGAGCUUAAAACAGCGUGGCAAAGUGUCUGUGGCUAGACUGCC [G2C C10U C13A G30U]	0.03
GGCAGAGCUGAACACAGCGUGGCAAAGUGGCCGUGGCUAGACUGGC [C10G U32C C45G]	0.01
GGCAUCGCUCAACGCAGCGUGUCAAACUGGGUGUGGCUAGACCGCC [G5U A6C A14G G22U G27C C31G U43C]	0
UGCAGAGCUCAACACAGCGUCGCAAAGUCGCUGUGGCUAGAAUGCC [G1U G21C G29C C42A]	0.03
GUCGUAGCUCAACACAGCGUGGCAAAAUGGUUGUGGCCAGACUGUC [G2U A4G G5U G27A C31U U38C C45U]	0.03
